Some of the results follow.
Tests used:
HSkMC = human skeletal muscle cells; assay: cytotoxicity call (relative viability < 0.9); conditions: 10 µM
HepG2 = assay: cytotoxicity call (relative viability < 0.9); conditions: 10 µM
S. aureus RN4220 = assay: growth inhibition call (relative growth <= 0.2); conditions: 50 µM

Structure (SMILES) | cytotoxicity call (HSkMC) | cytotoxicity call (HepG2) | growth inhibition call (S. aureus RN4220)
C[C@H]1CN([C@@H](C)CO)C(=O)Cc2cc(NC(=O)Cc3ccccc3)ccc2O[C@@H]1CN(C)S(=O)(=O)c1ccccc1 | inactive | inactive | inactive
C[C@@H]1CCCCO[C@H](CN(C)C(=O)Nc2cccc3ccccc23)[C@@H](C)CN([C@H](C)CO)C(=O)c2cc(NC(=O)c3ccccc3)ccc2O1 | inactive | inactive | inactive
C[C@H](CO)N1C[C@H](C)[C@@H](CN(C)S(C)(=O)=O)Oc2ccc(NC(=O)CCC(F)(F)F)cc2C1=O | inactive | inactive | inactive
CO[C@H]1CN(C)C(=O)c2cc(NS(=O)(=O)CC(F)(F)F)ccc2OC[C@H](C)N(Cc2cccnc2)C[C@@H]1C | inactive | inactive | inactive
Cc1noc(C)c1S(=O)(=O)N(C)C[C@H]1Oc2ccc(NC(=O)NC3CCCCC3)cc2CC(=O)N([C@@H](C)CO)C[C@H]1C | inactive | inactive | inactive
O=c1nc(NCc2ccco2)cc[nH]1 | inactive | inactive | inactive
COc1ccc(NC(=O)N(C)C[C@@H]2OCCCC[C@@H](C)Oc3ccc(NS(=O)(=O)c4ccc(Cl)cc4)cc3C(=O)N([C@H](C)CO)C[C@H]2C)cc1 | inactive | inactive | inactive
COCC(=O)Nc1ccc2c(c1)OC[C@H](C)N(Cc1ccccc1F)C[C@@H](C)[C@H](OC)CN(C)C2=O | inactive | inactive | inactive
CC(=O)N[C@@H](Cc1ccccc1)C(=O)NN | inactive | inactive | inactive
COc1ccc(S(=O)(=O)Nc2ccc3c(c2)C(=O)N([C@H](C)CO)C[C@H](C)[C@H](CN(C)C(=O)Nc2ccc(F)cc2)OCCCC[C@H](C)O3)cc1 | inactive | inactive | inactive
C[C@H](CO)N1C[C@H](C)[C@@H](CN(C)C(=O)c2cnccn2)Oc2ncc(C#CCN(C)C)cc2C1=O | inactive | inactive | inactive
COC(=O)c1cc(S(=O)(=O)N2CCOCC2)cn1C | inactive | inactive | inactive
Cc1noc(C)c1S(=O)(=O)Nc1ccc2c(c1)CC(=O)N([C@H](C)CO)C[C@@H](C)[C@@H](CN(C)Cc1ccc3c(c1)OCO3)O2 | inactive | active | inactive
Cn1cnc(S(=O)(=O)N2C[C@@H](O)COC[C@H]3O[C@@H](CC(=O)NCc4cccc(F)c4)CC[C@@H]32)c1 | inactive | inactive | inactive
C[C@H](CO)N1C[C@H](C)[C@@H](CN(C)Cc2ccc(C(F)(F)F)cc2)Oc2ccc(NC(=O)Cn3cnnn3)cc2C1=O | inactive | inactive | inactive
C[C@@H]1CCCCO[C@H](CN(C)Cc2ccc(C(F)(F)F)cc2)[C@@H](C)CN([C@@H](C)CO)C(=O)c2cc(NS(=O)(=O)c3ccc(Cl)cc3)ccc2O1 | active | active | inactive
C[C@H]1CN([C@@H](C)CO)C(=O)c2cc(NS(=O)(=O)c3cccs3)ccc2O[C@H]1CN(C)S(=O)(=O)c1ccc(F)cc1 | inactive | inactive | inactive
COc1ccc(NC(=O)Nc2ccc3c(c2)C(=O)N([C@H](C)CO)C[C@H](C)[C@H](CN(C)C(=O)NC2CCCCC2)OCCCC[C@@H](C)O3)cc1 | inactive | inactive | inactive
C/C=C/C(=O)c1cc(Cl)ccc1O | inactive | inactive | inactive
COc1ccc(CCNC(=O)[C@@]2(Sc3ccc(C)cc3)CC(=O)N(C3Cc4ccccc4C3)[C@@H]2c2ccc(CO)cc2I)cc1 | inactive | inactive | inactive
NC(=O)c1cccc(C(N)=O)c1 | inactive | inactive | inactive
Brc1ccc(CSc2c[nH]c3ccccc23)cc1 | inactive | active | active
Cc1cccc(C)c1NC(=O)c1cc(S(N)(=O)=O)c(Cl)cc1O | inactive | inactive | inactive
NC(=O)c1ncn([C@@H]2O[C@H](CO)[C@@H](O)[C@H]2O)c1N | inactive | inactive | inactive
C[C@H]1CCCCO[C@H](CN(C)Cc2ccncc2)[C@@H](C)CN([C@@H](C)CO)C(=O)c2cc(NC(=O)CCC(F)(F)F)ccc2O1 | inactive | inactive | inactive
C[C@H](CO)N1C[C@H](C)[C@@H](CN(C)C(=O)c2ccccc2F)Oc2cc(C#CCN(C)C)ccc2S1(=O)=O | inactive | inactive | inactive
C[C@@H]1CN([C@H](C)CO)C(=O)c2cc(NS(=O)(=O)c3ccc(F)cc3)ccc2O[C@H]1CN(C)Cc1ccncc1 | inactive | inactive | inactive

— the antibiotic and cytotoxicity screens of Wong et al. (2023)
